# Article PMC12040169 (PLOS Biology, 2025)
# The list shows a part of the results.
# Test system: T1, C. trachomatis L2/434/Bu expressing GFP (CTL2-GFP)
# T1 construct: L2/434/Bu GFP intracellular growth in HeLa cells
# Set-up: species or system HeLa; C. trachomatis total inclusion area by high-content imaging, normalised to DMSO
# Conditions: total inclusion area; 28.5 h, 10 µM; inhibitor
# Method in brief: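 Post-fluorescence-read fixation, DNA staining with Hoechst and high-content imaging; GFP inclusion area and number per well, and nuclei counts, used as proxies for bacterial growth and host viability.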
row,SMILES,% of control remaining
1,CN(Cc1cccc(Oc2ccccc2)c1)Cc1cccc2ccccc12 [CBK261857],92.8537
2,C/C(CCc1ccccc1)=N\NC(=O)c1ccc(CN2CCOCC2)cc1 [CBK262752],94.9208
3,O=C(N/N=C/c1ccc(O)cc1)c1cc[n+](Cc2ccccc2)cc1 [CBK262047C],102.125
4,Cc1ccc(C)c(S(=O)(=O)Nc2ccc(O)c(Sc3nc[nH]n3)c2)c1 [CBK266894],113.074
5,Cc1[nH]c(=O)[nH]c(=O)c1CCC(=O)OCc1nccn1Cc1ccccc1 [CBK297939],97.072
6,O=C(NC(c1ccccc1)c1ccsc1)C1CCN(C/C=C/c2ccccc2)CC1 (centres unmarked) [CBK148449],94.1456
7,O=C(CCCN1CCN(CCCC(=O)c2ccc(F)cc2)CC1)c1ccc(F)cc1 [CBK025317C],99.6791
8,CC(C)(C)SCCOC(=O)C1CC(=O)N(Cc2ccccn2)C1 (centres unmarked) [CBK303991],57.5035
9,c1ccc(CCN2CCC(Oc3nccnc3OCc3cccnc3)CC2)nc1 [CBK083180],91.747
10,COC(=O)c1ccccc1NC(=O)CN(c1cccc(Cl)c1Cl)S(C)(=O)=O [CBK264612],94.1834
11,Cc1ccc(-c2noc(-c3cccnc3N3CCC(C(=O)O)CC3)n2)cc1 [CBK287260],127.092
12,CC(=O)Nc1cccc(-c2nccnc2NCC2CC2)c1 [CBK037962],116.381
13,COc1ccc(CN(C)c2c(C)nc3c(OCCCN(C)S(C)(=O)=O)cccn23)cc1 [CBK147468],97.8063
14,C=Cn1ncc(CN(Cc2ccc(C)o2)CC2CCCO2)c1C (centres unmarked) [CBK283292],98.4459
15,Cc1ccc2nsnc2c1NC(=O)CN1CCCCC1 [CBK269330],94.1091
16,N#C/C(=C\c1cn(-c2ccccc2)nc1-c1cccc(S(=O)(=O)N2CCCCCC2)c1)c1nc2ccccc2c(=O)[nH]1 [CBK266347],75.4816
17,COC(=O)N1CCN(C(=O)c2cc(C(C)C)n3ncnc3n2)CC1 [CBK306509],57.5875
18,CN(C)Cc1cn([C@H]2CO[C@H]3[C@@H]2OC[C@@H]3NC(=O)NC2CCCCC2)nn1 [CBK289493],106.181
19,CCc1nnc(SCC(=O)N2c3ccccc3Sc3ccccc32)[nH]1 [CBK268687],107.794
20,Cc1cnn(C2CCCN(C(=O)CC3OCCc4sccc43)C2)c1 (centres unmarked) [CBK305329],102.965
21,Cc1ccc(CN(CCCn2ccnc2)Cc2ccccc2O)s1 [CBK283135],91.6275
22,CN1CCN(c2ccc(NS(=O)(=O)c3ccc(Cl)cc3)cc2)CC1 [CBK076932],102.521
23,c1csc(-c2cn3ccnc3c(NC3CC3)n2)c1 [CBK066712],112.478
24,Cc1cc(NC(=O)C2CCCCC2)nc2c1c(=O)oc1ccccc12 [CBK291247],116.46
25,O=C(NC(CN1CCOCC1)c1ccccc1)c1cnc(-c2ccc(Cl)cc2)c(-c2ccncc2)c1 (centres unmarked) [CBK037604],142.555
26,CN(C)C(=O)[C@H]1CN2CCC1C[C@@H]2Cn1cc(CCO)nn1 (some centres unmarked) [CBK289089],109.41
27,O=C(O)c1ccccc1Nc1c2ccccc2nc2ccccc12 [CBK263921],76.2117

row,SMILES,% of control remaining
1,Cn1cccc1C(=O)NCc1ccc(OC2CCNCC2)cc1 [CBK036360T],60.4408
2,c1ccc(-c2nc(C3CCCC3)n3ccccc23)cc1 [CBK149260],91.6296
3,CCOC(=O)N1CCN(C(C(=O)O)c2c[nH]c3cc(OCc4ccccc4)ccc23)CC1 (centres unmarked) [CBK286689],97.9849
4,COc1cccc2cc(C(=O)Nc3ccc4[nH]ccc4c3)oc12 [CBK149819],85.6805
5,CCCN1CCN(c2ncnc3sc(C4COc5ccccc5O4)cc23)CC1 (centres unmarked) [CBK269396],64.4247
6,Cn1cnc(S(=O)(=O)N(c2ccc(C(C)(C)C)cc2)C2CCNCC2)c1 [CBK165046T],82.8874
7,CCCC/C=C/c1cnc(N)c(N[C@@H](C)c2ccccc2)n1 [CBK063722],81.186
8,OC(Cn1c(Cc2ccccc2)nc2ccccc21)Cn1c2ccccc2c2ccccc21 (centres unmarked) [CBK262570],110.626
9,Cc1nn(C)c(C)c1C(C)NS(=O)(=O)Cc1cccc(F)c1 (centres unmarked) [CBK281396],90.0409
10,COc1ccc2c(c1)nc(SCC(O)c1ccccc1)n2C (centres unmarked) [CBK262508],92.0197
11,O=C(O)CSc1nnc(-c2ccc(S(=O)(=O)N3CCCCCC3)cc2)o1 [CBK300508],111.258
12,OCCN1CCN(c2nc(C3CCOC3)cn3ccnc23)CC1 (centres unmarked) [CBK037931],112.592
13,Nc1nc(CCC(=O)N2CCCC(c3cc(O)ncn3)C2)cs1 (centres unmarked) [CBK306976],65.4457
14,O=C(CCn1c(C(F)F)cc2cccnc21)NCc1ccncc1 [CBK285027],84.8959
15,CCC(C)c1ccc(NC(C)C(=O)Nc2ccc3[nH]c(=O)[nH]c3c2)cc1 (centres unmarked) [CBK296694],98.6156
16,CS(=O)(=O)N(Cc1ccccc1F)c1ccccc1C(=O)O [CBK287239],88.5567
17,CC(=O)Nc1cccc(-c2cnc(N)c(N3CCN(CCN(C)C)CC3)n2)c1 [CBK063472],110.385
18,COc1cccc(CN(C)C2CCN(C)CC2)c1OC [CBK261532],87.7216
19,C=Cn1ncc(CN(C)Cc2nc3ccccc3[nH]2)c1C [CBK283170],105.624
20,CCOc1ccccc1OCCCOc1ccc(C(=O)O)cc1 [CBK295144],87.6339
21,Cc1ccccc1Nc1nc(N)nc(CN2CCCC2)n1 [CBK306152],19.6414
22,Cc1cc(C2CCCN2C(=O)c2cnn3c(C)cc(C)nc23)on1 (centres unmarked) [CBK305634],51.9697
23,CN(C)c1nc(NCc2ccccc2)nc(SCC(=O)Nc2ccccc2Cl)n1 [CBK267190],115.411
24,O=C(NCc1ccco1)/C(=C\c1ccccc1)NC(=O)c1ccc(Br)cc1 [CBK263701],103.829
25,CCC(C(=O)Nc1ccc(OC(C)=O)cc1C(=O)O)c1ccccc1 (centres unmarked) [CBK269685],69.427
26,COc1ccc(-c2cccc(N3CCN(CCN4CCCC4)CC3)n2)cc1OC [CBK037680],79.2176
27,COc1cc(-c2ccc(N)c3ccccc23)cc(OC)c1OC [CBK084332],58.815

row,SMILES,% of control remaining
1,CCOc1ccc(CN2CCN(CCCc3ccccc3)CC2)cc1 [CBK264153G],105.21
2,CCOc1ccc(-c2cncc(N3CCN(C(=O)c4ccco4)CC3)n2)cc1 [CBK065860],64.5392
3,CC(=O)NCc1cccc(-c2cncc(C(=O)Nc3ccc4c(c3)OCCO4)c2)c1 [CBK161009T],65.6978
4,O=C(Nc1ccnn1Cc1cccs1)N1Cc2cnn(CCO)c2C1 [CBK307150],28.7299
5,CC(=O)c1ccc(NC(=O)CC2SC(=N)NC2=O)cc1 (centres unmarked) [CBK265625],112.782
6,O=C(NC1CCN(Cn2nnc3ccccc3c2=O)CC1)C1CC1 [CBK305584],23.3319
7,N#Cc1c(-c2ccc(Cl)cc2)c[nH]c1N [CBK019323],89.8893
8,Cc1cc(CNC(=O)[C@@H]2Cc3cn(C)c4cccc(c34)[C@H](CC(C)C)N2)no1 [CBK289420],102.491
9,Nc1ncc(-c2cccc(C(=O)O)c2)nc1-c1ccc(O)cc1 [CBK200420],101.998
10,COC(=O)C1=C(C)OC(n2cccc2)=C(C#N)C1c1cc(OC)c(O)c(OC)c1 (centres unmarked) [CBK293994],111.828
11,COc1ccc2c(c1)C1(CC(=O)N(Cc3ccccc3)C1=O)C(=O)N2CCCN1C(=O)c2ccccc2C1=O (centres unmarked) [CBK075501],129.903
12,CCCn1c(=S)[nH]c2cc(C(=O)NCCc3ccc(Cl)cc3)ccc2c1=O [CBK294445],101.799
13,CC(C(=O)Nc1ccc2oc(-c3ccccc3)nc2c1)(c1ccccc1)c1ccccc1 [CBK263928],102.104
14,N[C@H]1C[C@H](c2nnc(Cn3ncc(N4CCCC4)cc3=O)n2C2CC2)C1 [CBK307039],38.8906
15,CSC(=S)n1c(C)nc2ccccc21 [CBK018539],24.9627
16,O=[N+]([O-])c1cc(F)ccc1Oc1cccc2c1CCCC2 [CBK002559],77.9113
17,CN1CCN(c2nc(NCCNc3ccc([N+](=O)[O-])cc3)c3ccccc3n2)CC1 [CBK266949],57.1989
18,CCNC(=O)Nc1nc2cccnc2cc1-c1ccccc1 [CBK081239],76.677
19,CC(=O)c1nnn(-c2cc(Cl)ccc2Cl)c1C [CBK085973],46.2087
20,O=C(O)CCC(=O)Nc1ccc(NC(=O)c2ccccc2)c(Cl)c1 [CBK263478],74.6525
21,COC(=O)c1ccc(CN2CCC(Oc3nccnc3OCc3ccc(Cl)c(Cl)c3)CC2)o1 [CBK153782],96.0044
22,CCOC(=O)N1CCN(c2cccc3[nH]c(C(=O)O)cc23)CC1 [CBK083477],88.0398
23,CO/N=C(/C(=O)O)c1cn2cc(Br)ccc2n1 [CBK260925G],100.815
24,CN(C(=O)Cn1cc(C(=O)NCC(C)(C)c2ccc(F)cc2)ccc1=O)c1ccccc1 [CBK285662],98.8029
25,O=c1c(Cc2ccccc2)c(O)c2cccc3c2n1CCC3 [CBK291166],106.194
26,CCCCN=C(NCCCn1cccn1)N1CCCN(C(C)=O)CC1 [CBK304273I],38.1442
